Laboratory results as given in the supplement of paper PMC10126150.
Values marked as one replicate rest on one cluster of the flow cell; about a third of the high ones do not repeat.
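Further: ATP exposure 15 min at 22 °C before imaging.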

These sequences were tested on ATP (assay: switch fluorescence ratio, 500 uM ATP over buffer (Cy3 cluster intensity, sum of 5 cycles each) (fold (ratio)); higher = stronger signal-on switching upon ATP binding; sequences stand for … in TCGTCGGCAGCGTCAGATGTGTATAAGAGACAGTTTTTTTTTTTTTTTTTTTTTTTTT…TC). Details: aptamer strand: ATP DNA aptamer (quencher-CACCTGGGGGAGTATTGCGGAGGAAGG + anchor), 100 nM annealed; ATP concentration: 500 uM; one replicate.
Procedure, shortened: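 Switching-strand clusters labelled with Cy3 on a modified Illumina MiSeq flow-cell were annealed to 100 nM quencher-labelled ATP aptamer, imaged in selection buffer, and re-imaged after 15 min with 500 uM ATP at 22 °C. This was done over five cycles with NaOH stripping and re-annealing in between. The fluorescence ratio is summed target-cycle over summed buffer-cycle Cy3 intensity per cluster, averaged per switch-domain sequence, excluding clusters outside 100-1000 RFU.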
AGATAGTGAT showed a switch fluorescence ratio of 0.938. AGATATAGAC gave a switch fluorescence ratio of 1.05. With AGATATGTCC the switch fluorescence ratio was 1.06. For AGATATTGTG, the switch fluorescence ratio was 0.983. With AGATCAGCG the switch fluorescence ratio was 1.03. Work on AGATCGCGTC yielded a switch fluorescence ratio of 1.01. Sequence AGATCGTCTG has a switch fluorescence ratio of 0.967. Sequence AGATGACCTG has a switch fluorescence ratio of 0.991. With AGATGAGGTA the switch fluorescence ratio was 0.993. With AGATGCCTTA the switch fluorescence ratio was 0.98. For AGATGCGCGC, the switch fluorescence ratio was 1.03. In the case of AGATGCGGCT, the switch fluorescence ratio is reported as 0.993. In the case of AGATGGGACA, the switch fluorescence ratio is reported as 1.04. For AGATGGGTTG, the switch fluorescence ratio was 0.931. Work on AGATGGTTAG yielded a switch fluorescence ratio of 1.02. For AGATGGTTTA, the switch fluorescence ratio was 0.982. Work on AGATGTGGAG yielded a switch fluorescence ratio of 0.916. In the case of AGATTAAAGG, the switch fluorescence ratio is reported as 0.999. Sequence AGATTAAGA has a switch fluorescence ratio of 0.994. AGATTAGGTC gave a switch fluorescence ratio of 1.03. With AGATTATCGC the switch fluorescence ratio was 0.955. Work on AGATTATGG yielded a switch fluorescence ratio of 0.973. Sequence AGATTCACAC has a switch fluorescence ratio of 1.05. Sequence AGATTCACCT has a switch fluorescence ratio of 1.16. In the case of AGATTCCCTT, the switch fluorescence ratio is reported as 0.971. In the case of AGATTCGAC, the switch fluorescence ratio is reported as 0.985. With AGATTGAAAC the switch fluorescence ratio was 1.03. In the case of AGATTGAAGC, the switch fluorescence ratio is reported as 0.998. With AGATTGGCGT the switch fluorescence ratio was 1.01. In the case of AGATTTCGAT, the switch fluorescence ratio is reported as 0.991. In the case of AGCAAAAAAA, the switch fluorescence ratio is reported as 0.997. AGCAAAATTG showed a switch fluorescence ratio of 1.09. AGCAAACACT was tested, and the switch fluorescence ratio was 1.04. Work on AGCAACATCG yielded a switch fluorescence ratio of 1.03. Sequence AGCAACTCCT has a switch fluorescence ratio of 2.13. In the case of AGCAAGATAA, the switch fluorescence ratio is reported as 1.12. AGCAAGTTAA gave a switch fluorescence ratio of 1.04. Work on AGCACAGTTA yielded a switch fluorescence ratio of 1.01. For AGCACCCTTT, the switch fluorescence ratio was 0.977. Work on AGCACGCTTC yielded a switch fluorescence ratio of 1.05. Sequence AGCACGTCTT has a switch fluorescence ratio of 0.995. Work on AGCAGAACAG yielded a switch fluorescence ratio of 0.995. Work on AGCAGAACCG yielded a switch fluorescence ratio of 1.05. For AGCAGATACA, the switch fluorescence ratio was 1.19. Work on AGCAGTCAAT yielded a switch fluorescence ratio of 1.07. Sequence AGCATACTTA has a switch fluorescence ratio of 1.19. Work on AGCATATT yielded a switch fluorescence ratio of 1.45. Sequence AGCATCAGGC has a switch fluorescence ratio of 0.966. For AGCATCTGTA, the switch fluorescence ratio was 1.03. Sequence AGCATGCGGC has a switch fluorescence ratio of 1.06. With AGCATTCCGC the switch fluorescence ratio was 1.04. Work on AGCCACAGGG yielded a switch fluorescence ratio of 1.1. AGCCACTTTT was tested, and the switch fluorescence ratio was 1.1. AGCCAGATGT was tested, and the switch fluorescence ratio was 1.01. In the case of AGCCAGCGTC, the switch fluorescence ratio is reported as 0.981. In the case of AGCCATGTCG, the switch fluorescence ratio is reported as 0.971. AGCCATGTGG showed a switch fluorescence ratio of 0.988. AGCCATTATC was tested, and the switch fluorescence ratio was 1.02. For AGCCATTTAG, the switch fluorescence ratio was 0.994. With AGCCCAGGCC the switch fluorescence ratio was 1. Work on AGCCCCAATT yielded a switch fluorescence ratio of 0.988. With AGCCCGTAAC the switch fluorescence ratio was 1.1. AGCCCGTCAA showed a switch fluorescence ratio of 1.29. AGCCCTTGTG was tested, and the switch fluorescence ratio was 1.07. AGCCCTTTTA gave a switch fluorescence ratio of 0.992. Work on AGCCGGCTCG yielded a switch fluorescence ratio of 1.01. AGCCGGGACT showed a switch fluorescence ratio of 1.04. AGCCGGGGGT showed a switch fluorescence ratio of 0.989. AGCCGGTCCC gave a switch fluorescence ratio of 1.05. In the case of AGCCGTTCGA, the switch fluorescence ratio is reported as 1.02. AGCCTGTTGG gave a switch fluorescence ratio of 0.972. Work on AGCCTTAATG yielded a switch fluorescence ratio of 0.954. Sequence AGCCTTAGT has a switch fluorescence ratio of 0.989. AGCCTTGAGG showed a switch fluorescence ratio of 1.01. Sequence AGCGAAGTCT has a switch fluorescence ratio of 1.02. In the case of AGCGAATCGC, the switch fluorescence ratio is reported as 1.04. AGCGAATCGG gave a switch fluorescence ratio of 0.987. Sequence AGCGACCAGG has a switch fluorescence ratio of 1.06. AGCGACCATG was tested, and the switch fluorescence ratio was 1.01. AGCGACGTTG gave a switch fluorescence ratio of 0.97. Work on AGCGAGAAAA yielded a switch fluorescence ratio of 1.06. AGCGAGATGG was tested, and the switch fluorescence ratio was 1.04. With AGCGATTTGT the switch fluorescence ratio was 1.04. For AGCGCAAGGG, the switch fluorescence ratio was 1.38. With AGCGCACACG the switch fluorescence ratio was 1.08. With AGCGCATTGG the switch fluorescence ratio was 1.11. Work on AGCGCCTTAG yielded a switch fluorescence ratio of 1.03. AGCGCGAGAG gave a switch fluorescence ratio of 1.05. With AGCGCTCGG the switch fluorescence ratio was 0.979. Work on AGCGGAAGC yielded a switch fluorescence ratio of 1.03. Work on AGCGGAGGGA yielded a switch fluorescence ratio of 1.04. In the case of AGCGGCATTA, the switch fluorescence ratio is reported as 1.04. AGCGGCTGTT showed a switch fluorescence ratio of 0.98. For AGCGGGCTAG, the switch fluorescence ratio was 1.03. In the case of AGCGGGGGGC, the switch fluorescence ratio is reported as 1.01. AGCGGTAAA showed a switch fluorescence ratio of 1.03. Sequence AGCGTACATC has a switch fluorescence ratio of 1.12. In the case of AGCGTACCC, the switch fluorescence ratio is reported as 1.03. AGCGTAGGTC gave a switch fluorescence ratio of 1.12. In the case of AGCGTATGGT, the switch fluorescence ratio is reported as 1.02. AGCGTCATA gave a switch fluorescence ratio of 1.01. Work on AGCGTGAAGG yielded a switch fluorescence ratio of 0.997. For AGCGTGACGG, the switch fluorescence ratio was 1.01. With AGCGTGACTC the switch fluorescence ratio was 1.17. AGCGTTATCT was tested, and the switch fluorescence ratio was 0.987. Sequence AGCGTTGGTC has a switch fluorescence ratio of 1.03. With AGCGTTGTTG the switch fluorescence ratio was 1. For AGCTAATTTG, the switch fluorescence ratio was 0.996. With AGCTACAAAT the switch fluorescence ratio was 1. In the case of AGCTACCACA, the switch fluorescence ratio is reported as 1.09. In the case of AGCTAGAAGG, the switch fluorescence ratio is reported as 0.978. With AGCTAGGCCT the switch fluorescence ratio was 1.02. With AGCTAGGTTT the switch fluorescence ratio was 0.989. AGCTATTGAA gave a switch fluorescence ratio of 1.02. Sequence AGCTCAACAT has a switch fluorescence ratio of 1.02. In the case of AGCTCATAGA, the switch fluorescence ratio is reported as 0.987. For AGCTCATCCT, the switch fluorescence ratio was 1.02. In the case of AGCTCCCCGT, the switch fluorescence ratio is reported as 1.34. Work on AGCTCGGCGG yielded a switch fluorescence ratio of 0.991. With AGCTCGGGTG the switch fluorescence ratio was 1.12. Work on AGCTCTGCAG yielded a switch fluorescence ratio of 1.19. AGCTGATCCG gave a switch fluorescence ratio of 1.21. In the case of AGCTGCGCTC, the switch fluorescence ratio is reported as 0.999. AGCTGGCCCG gave a switch fluorescence ratio of 0.958. In the case of AGCTGGGCCC, the switch fluorescence ratio is reported as 1.02. AGCTGGGGAG was tested, and the switch fluorescence ratio was 1. Sequence AGCTGGTCCT has a switch fluorescence ratio of 0.982. In the case of AGCTGGTGAA, the switch fluorescence ratio is reported as 0.981. AGCTGTAGGG was tested, and the switch fluorescence ratio was 1.04. For AGCTGTAGTG, the switch fluorescence ratio was 1.05. In the case of AGCTGTCACC, the switch fluorescence ratio is reported as 0.992. Sequence AGCTTGATC has a switch fluorescence ratio of 0.984. AGCTTGGTGG gave a switch fluorescence ratio of 0.978. With AGGAAACTTG the switch fluorescence ratio was 1. Work on AGGAAAGGGA yielded a switch fluorescence ratio of 0.99. For AGGAAAGGGT, the switch fluorescence ratio was 0.936. With AGGAAAGTTG the switch fluorescence ratio was 1.03. In the case of AGGAAGGCAG, the switch fluorescence ratio is reported as 0.956. AGGAAGGTGC gave a switch fluorescence ratio of 1.51. With AGGAATCGAC the switch fluorescence ratio was 1.01. For AGGAATGTCA, the switch fluorescence ratio was 0.962. AGGAATTTTG gave a switch fluorescence ratio of 0.968. AGGACAACGC showed a switch fluorescence ratio of 0.974. For AGGACACTCT, the switch fluorescence ratio was 1. Sequence AGGACAGGAA has a switch fluorescence ratio of 1.04. AGGACATGCA showed a switch fluorescence ratio of 1.05. For AGGACATTCT, the switch fluorescence ratio was 0.989. With AGGACATTTA the switch fluorescence ratio was 1.01. AGGACGCA showed a switch fluorescence ratio of 1.26. AGGACGCGGA was tested, and the switch fluorescence ratio was 0.997. In the case of AGGACGTCGC, the switch fluorescence ratio is reported as 1.02. AGGACTGAGT gave a switch fluorescence ratio of 0.999. For AGGAGAGAGA, the switch fluorescence ratio was 1.02. In the case of AGGAGATTTA, the switch fluorescence ratio is reported as 1.03. With AGGAGCAAGA the switch fluorescence ratio was 1.96. Sequence AGGAGCCGAG has a switch fluorescence ratio of 0.993. Work on AGGAGGAAAC yielded a switch fluorescence ratio of 1.02. For AGGAGGCTCA, the switch fluorescence ratio was 0.993. Sequence AGGAGGGGCA has a switch fluorescence ratio of 1. For AGGAGGTACG, the switch fluorescence ratio was 0.99. Work on AGGAGTCCTT yielded a switch fluorescence ratio of 0.983. AGGATAGGTC gave a switch fluorescence ratio of 0.955. Work on AGGATAGTTT yielded a switch fluorescence ratio of 0.98. In the case of AGGATATAAG, the switch fluorescence ratio is reported as 0.965. AGGATCGCCG was tested, and the switch fluorescence ratio was 1.01. AGGATCTTCG was tested, and the switch fluorescence ratio was 1.01. AGGATGGAAG was tested, and the switch fluorescence ratio was 1.02. AGGATGGCAT was tested, and the switch fluorescence ratio was 1. AGGATGTGTT was tested, and the switch fluorescence ratio was 0.972. With AGGATTAGCG the switch fluorescence ratio was 1.01. With AGGATTATTA the switch fluorescence ratio was 0.996. AGGATTCTTG showed a switch fluorescence ratio of 0.976. Sequence AGGATTTGCA has a switch fluorescence ratio of 1.03. AGGCACCAAA showed a switch fluorescence ratio of 1.24. For AGGCACGATG, the switch fluorescence ratio was 0.97. Work on AGGCACGTGA yielded a switch fluorescence ratio of 0.979. AGGCAGGGAG gave a switch fluorescence ratio of 0.987. For AGGCAGGTCT, the switch fluorescence ratio was 1. AGGCATCTTG was tested, and the switch fluorescence ratio was 1.03. AGGCCAAAGG showed a switch fluorescence ratio of 0.92. AGGCCAAGCT was tested, and the switch fluorescence ratio was 1.01. AGGCCACGCA showed a switch fluorescence ratio of 1.18. AGGCCATCGC showed a switch fluorescence ratio of 1.03. Sequence AGGCCATGTA has a switch fluorescence ratio of 0.996. Sequence AGGCCCTGAA has a switch fluorescence ratio of 0.999. AGGCCGACAC gave a switch fluorescence ratio of 1.08. Work on AGGCCGCTGT yielded a switch fluorescence ratio of 0.956. For AGGCCGGCTA, the switch fluorescence ratio was 1.03. AGGCGAACTG gave a switch fluorescence ratio of 1.11. For AGGCGCTCAC, the switch fluorescence ratio was 1.13. In the case of AGGCGGTAGA, the switch fluorescence ratio is reported as 0.99. AGGCGTAC showed a switch fluorescence ratio of 1.07. AGGCGTGCGG showed a switch fluorescence ratio of 1.02. In the case of AGGCGTTCAG, the switch fluorescence ratio is reported as 0.996. Work on AGGCTAATCT yielded a switch fluorescence ratio of 0.992. AGGCTAGAGG gave a switch fluorescence ratio of 1.04. In the case of AGGCTCAGGT, the switch fluorescence ratio is reported as 1.02. AGGCTTACTG gave a switch fluorescence ratio of 1.01. Sequence AGGCTTAGGC has a switch fluorescence ratio of 0.978. For AGGCTTGTGG, the switch fluorescence ratio was 1.01.
